Laboratory results reported in patent US20220025050A1 (OSE IMMUNOTHERAPEUTICS, published 2022).

Columns and labels:
[1] = biological target: T1, recombinant hPD1 (Sino Biologicals, reference 10377-H08H) (human, UniProt Q15116 partial chain); assay: ELISA: hPD-1 immobilized, anti-human Fc peroxidase
T1 construct: also called Human recombinant PD-1 protein; PD1-His recombinant protein

[2] = biological target: T1, recombinant hPD1 (Sino Biologicals, …); assay: ELISA: hPD-1 immobilized, anti-human Fc peroxidase; remark: listed apart in the source

T1 sequence (Q15116 25-167 limits assumed): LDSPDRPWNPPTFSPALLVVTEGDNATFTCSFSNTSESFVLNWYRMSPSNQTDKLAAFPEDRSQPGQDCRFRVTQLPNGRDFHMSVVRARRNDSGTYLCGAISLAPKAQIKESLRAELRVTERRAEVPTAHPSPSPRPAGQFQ

EC50 [1] [ng/mL]	EC50 [2] [ng/mL]	Binder
4.92		Chimeric anti-PD1 fused on its heavy chain to Type I-protein A (CD86) (other, not shown: small tags and cut ends, Bifunctional molecule) heavy: QIQLVQSGPELKKPGETVKISCKASGYTFTHYGMNWVKQAPGKGLKWMGWINTNTGEPTYAEEFKGRFAFSLETSASAAFLQINNLKNEDTATYFCAKEREPGMDSWGQGTSVTVSSASTKGPSVFPLAPCSRSTSESTAALGCLVKDYFPEPVTVSWNSGALTSGVHTFPAVLQSSGLYSLSSVVTVPSSSLGTKTYTCNVDHKPSNTKVDKRV[human IgG4 Fc with S228P L445P (EU numbers) omitted here]APLKIQAYFNETADLPCQFANSQNQSLSELVVFWQDQENLVLNEVYLGKEKFDSVHSKYMGRTSFDSDSWTLRLHNLQIKDKGLYQCIIHHKKPTGMIRIHQMNSELSVLANFSQPEIVPISNITENVYINLTCSSIHGYPEPKKMSVLLRTKNSTIEYDGVMQKSQDNVTELYDVSISLSVSFPDVTSNMTIFCILETDKTRLLSSPFSIELEDPQPPPDH light: DVLLTQTPLSLPVSLGDQASISCRSSQNIVHANGNTYLEWYLQKPGQSPKLLIYKVSNRFSGVPDRFSGSGSGTDFTLKITRVEAEDLGVYYCFQGSHVPNTFGGGTKLEIKRTVAAPSVFIFPPSDEQLKSGTASVVCLLNNFYPREAKVQWKVDNALQSGNSQESVTEQDSKDSTYSLSSTLTLSKADYEKHKVYACEVTHQGLSSPVTKSFNRGEC
3.89		Chimeric anti-PD1 fused on its heavy chain to Type II-protein A (OX40L) (other, not shown: small tags and cut ends, Bifunctional molecule) heavy: QIQLVQSGPELKKPGETVKISCKASGYTFTHYGMNWVKQAPGKGLKWMGWINTNTGEPTYAEEFKGRFAFSLETSASAAFLQINNLKNEDTATYFCAKEREPGMDSWGQGTSVTVSSASTKGPSVFPLAPCSRSTSESTAALGCLVKDYFPEPVTVSWNSGALTSGVHTFPAVLQSSGLYSLSSVVTVPSSSLGTKTYTCNVDHKPSNTKVDKRV[human IgG4 Fc with S228P L445P (EU numbers) omitted here]QVSHRYPRIQSIKVQFTEYKKEKGFILTSQKEDEIMKVQNNSVIINCDGFYLISLKGYFSQEVNISLHYQKDEEPLFQLKKVRSVNSLMVASLTYKDKVYLNVTTDNTSLDDFHVNGGELILIHQNPGEFCVL light: DVLLTQTPLSLPVSLGDQASISCRSSQNIVHANGNTYLEWYLQKPGQSPKLLIYKVSNRFSGVPDRFSGSGSGTDFTLKITRVEAEDLGVYYCFQGSHVPNTFGGGTKLEIKRTVAAPSVFIFPPSDEQLKSGTASVVCLLNNFYPREAKVQWKVDNALQSGNSQESVTEQDSKDSTYSLSSTLTLSKADYEKHKVYACEVTHQGLSSPVTKSFNRGEC
3.84		Chimeric anti-PD1 fused on its heavy chain to Type I-protein B (CD80) (other, not shown: small tags and cut ends, Bifunctional molecule) heavy: QIQLVQSGPELKKPGETVKISCKASGYTFTHYGMNWVKQAPGKGLKWMGWINTNTGEPTYAEEFKGRFAFSLETSASAAFLQINNLKNEDTATYFCAKEREPGMDSWGQGTSVTVSSASTKGPSVFPLAPCSRSTSESTAALGCLVKDYFPEPVTVSWNSGALTSGVHTFPAVLQSSGLYSLSSVVTVPSSSLGTKTYTCNVDHKPSNTKVDKRV[human IgG4 Fc with S228P L445P (EU numbers) omitted here]VIHVTKEVKEVATLSCGHNVSVEELAQTRIYWQKEKKMVLTMMSGDMNIWPEYKNRTIFDITNNLSIVILALRPSDEGTYECVVLKYEKDAFKREHLAEVTLSVKADFPTPSISDFEIPTSNIRRIICSTSGGFPEPHLSWLENGEELNAINTTVSQDPETELYAVSSKLDFNMTTNHSFMCLIKYGHLRVNQTFNWNTTKQEHFPDN light: DVLLTQTPLSLPVSLGDQASISCRSSQNIVHANGNTYLEWYLQKPGQSPKLLIYKVSNRFSGVPDRFSGSGSGTDFTLKITRVEAEDLGVYYCFQGSHVPNTFGGGTKLEIKRTVAAPSVFIFPPSDEQLKSGTASVVCLLNNFYPREAKVQWKVDNALQSGNSQESVTEQDSKDSTYSLSSTLTLSKADYEKHKVYACEVTHQGLSSPVTKSFNRGEC
	8.89	Humanized anti-PD1 (VH SEQ ID NO:19, VL SEQ ID NO:28) fused on its light chain to Type I-protein A (CD86) (other, Bifunctional molecule) heavy: QIQLVQSGSELKKPGASVKVSCKASGYTFTHYAMNWVRQAPGQGLEWMGWINTNTGEPTYAQGFTGRFVFSLDTSVSTAYLQISSLKAEDTAVYYCAREREPGMDTWGQGTLVTVSSASTKGPSVFPLAPCSRSTSESTAALGCLVKDYFPEPVTVSWNSGALTSGVHTFPAVLQSSGLYSLSSVVTVPSSSLGTKTYTCNVDHKPSNTKVDKRV[human IgG4 Fc with S228P L445P (EU numbers) omitted here] light: DVVMTQSPLSLPVTLGQPASISCRSSQSLVHANTNTYLEWYQQRPGQSPRLLIYKVSNRFSGVPDRFSGSGSGTDFTLKISRVEAEDVGVYYCFQGTHVPNTFGQGTKLEIKRTVAAPSVFIFPPSDEQLKSGTASVVCLLNNFYPREAKVQWKVDNALQSGNSQESVTEQDSKDSTYSLSSTLTLSKADYEKHKVYACEVTHQGLSSPVTKSFNRGECGGGGSGGGGSGGGGSAPLKIQAYFNETADLPCQFANSQNQSLSELVVFWQDQENLVLNEVYLGKEKFDSVHSKYMGRTSFDSDSWTLRLHNLQIKDKGLYQCIIHHKKPTGMIRIHQMNSELSVLANFSQPEIVPISNITENVYINLTCSSIHGYPEPKKMSVLLRTKNSTIEYDGVMQKSQDNVTELYDVSISLSVSFPDVTSNMTIFCILETDKTRLLSSPFSIELEDPQPPPDH
	6.17	Humanized anti-PD1 (VH SEQ ID NO:19, VL SEQ ID NO:28) fused on its light chain to Cytokine-protein A (IL-7) (other, Bifunctional molecule) heavy: QIQLVQSGSELKKPGASVKVSCKASGYTFTHYAMNWVRQAPGQGLEWMGWINTNTGEPTYAQGFTGRFVFSLDTSVSTAYLQISSLKAEDTAVYYCAREREPGMDTWGQGTLVTVSSASTKGPSVFPLAPCSRSTSESTAALGCLVKDYFPEPVTVSWNSGALTSGVHTFPAVLQSSGLYSLSSVVTVPSSSLGTKTYTCNVDHKPSNTKVDKRV[human IgG4 Fc with S228P L445P (EU numbers) omitted here] light: DVVMTQSPLSLPVTLGQPASISCRSSQSLVHANTNTYLEWYQQRPGQSPRLLIYKVSNRFSGVPDRFSGSGSGTDFTLKISRVEAEDVGVYYCFQGTHVPNTFGQGTKLEIKRTVAAPSVFIFPPSDEQLKSGTASVVCLLNNFYPREAKVQWKVDNALQSGNSQESVTEQDSKDSTYSLSSTLTLSKADYEKHKVYACEVTHQGLSSPVTKSFNRGECGGGGSGGGGSGGGGSDCDIEGKDGKQYESVLMVSIDQLLDSMKEIGSNCLNNEFNFFKRHICDANKEGMFLFRAARKLRQFLKMNSTGDFDLHLLKVSEGTTILLNCTGQVKGRKPAALGEAQPTKSLEENKSLKEQKKLNDLCFLKRLLQEIKTCWNKILMGTKEH
	8	Humanized anti-PD1 (VH SEQ ID NO:19, VL SEQ ID NO:28) fused on its light chain to Type II-protein B (4-1BBL) (other, Bifunctional molecule) heavy: QIQLVQSGSELKKPGASVKVSCKASGYTFTHYAMNWVRQAPGQGLEWMGWINTNTGEPTYAQGFTGRFVFSLDTSVSTAYLQISSLKAEDTAVYYCAREREPGMDTWGQGTLVTVSSASTKGPSVFPLAPCSRSTSESTAALGCLVKDYFPEPVTVSWNSGALTSGVHTFPAVLQSSGLYSLSSVVTVPSSSLGTKTYTCNVDHKPSNTKVDKRV[human IgG4 Fc with S228P L445P (EU numbers) omitted here] light: DVVMTQSPLSLPVTLGQPASISCRSSQSLVHANTNTYLEWYQQRPGQSPRLLIYKVSNRFSGVPDRFSGSGSGTDFTLKISRVEAEDVGVYYCFQGTHVPNTFGQGTKLEIKRTVAAPSVFIFPPSDEQLKSGTASVVCLLNNFYPREAKVQWKVDNALQSGNSQESVTEQDSKDSTYSLSSTLTLSKADYEKHKVYACEVTHQGLSSPVTKSFNRGECGGGGSGGGGSGGGGSREGPELSPDDPAGLLDLRQGMFAQLVAQNVLLIDGPLSWYSDPGLAGVSLTGGLSYKEDTKELVVAKAGVYYVFFQLELRRVVAGEGSGSVSLALHLQPLRSAAGAAALALTVDLPPASSEARNSAFGFQGRLLHLSAGQRLGVHLHTEARARHAWQLTQGATVLGLFRVTPEIPAGLPSPRSE
	8.91	Humanized anti-PD1 (VH SEQ ID NO:19, VL SEQ ID NO:28) fused on its light chain to Type I-protein B (CD80) (other, Bifunctional molecule) heavy: QIQLVQSGSELKKPGASVKVSCKASGYTFTHYAMNWVRQAPGQGLEWMGWINTNTGEPTYAQGFTGRFVFSLDTSVSTAYLQISSLKAEDTAVYYCAREREPGMDTWGQGTLVTVSSASTKGPSVFPLAPCSRSTSESTAALGCLVKDYFPEPVTVSWNSGALTSGVHTFPAVLQSSGLYSLSSVVTVPSSSLGTKTYTCNVDHKPSNTKVDKRV[human IgG4 Fc with S228P L445P (EU numbers) omitted here] light: DVVMTQSPLSLPVTLGQPASISCRSSQSLVHANTNTYLEWYQQRPGQSPRLLIYKVSNRFSGVPDRFSGSGSGTDFTLKISRVEAEDVGVYYCFQGTHVPNTFGQGTKLEIKRTVAAPSVFIFPPSDEQLKSGTASVVCLLNNFYPREAKVQWKVDNALQSGNSQESVTEQDSKDSTYSLSSTLTLSKADYEKHKVYACEVTHQGLSSPVTKSFNRGECGGGGSGGGGSGGGGSVIHVTKEVKEVATLSCGHNVSVEELAQTRIYWQKEKKMVLTMMSGDMNIWPEYKNRTIFDITNNLSIVILALRPSDEGTYECVVLKYEKDAFKREHLAEVTLSVKADFPTPSISDFEIPTSNIRRIICSTSGGFPEPHLSWLENGEELNAINTTVSQDPETELYAVSSKLDFNMTTNHSFMCLIKYGHLRVNQTFNWNTTKQEHFPDN
	5.41	Humanized anti-PD1 (VH SEQ ID NO:19, VL SEQ ID NO:28) fused on its light chain to Type II-protein A (OX40L) (other, Bifunctional molecule) heavy: QIQLVQSGSELKKPGASVKVSCKASGYTFTHYAMNWVRQAPGQGLEWMGWINTNTGEPTYAQGFTGRFVFSLDTSVSTAYLQISSLKAEDTAVYYCAREREPGMDTWGQGTLVTVSSASTKGPSVFPLAPCSRSTSESTAALGCLVKDYFPEPVTVSWNSGALTSGVHTFPAVLQSSGLYSLSSVVTVPSSSLGTKTYTCNVDHKPSNTKVDKRV[human IgG4 Fc with S228P L445P (EU numbers) omitted here] light: DVVMTQSPLSLPVTLGQPASISCRSSQSLVHANTNTYLEWYQQRPGQSPRLLIYKVSNRFSGVPDRFSGSGSGTDFTLKISRVEAEDVGVYYCFQGTHVPNTFGQGTKLEIKRTVAAPSVFIFPPSDEQLKSGTASVVCLLNNFYPREAKVQWKVDNALQSGNSQESVTEQDSKDSTYSLSSTLTLSKADYEKHKVYACEVTHQGLSSPVTKSFNRGECGGGGSGGGGSGGGGSQVSHRYPRIQSIKVQFTEYKKEKGFILTSQKEDEIMKVQNNSVIINCDGFYLISLKGYFSQEVNISLHYQKDEEPLFQLKKVRSVNSLMVASLTYKDKVYLNVTTDNTSLDDFHVNGGELILIHQNPGEFCVL

Read-outs that look alike come from different tables or passages of the source.
